About 530 (0.13%) of roughly 410,000 compounds were called active. This list was built around the results that the source calls inconclusive (neither active nor inactive); the mix of calls is not that of the screen. Calls follow the shape of the dose curve; as a rule, active = well fitted inhibition curve with a large enough effect; inconclusive = small, poorly fitted or top-dose-only effect, or another doubt; inactive = no such curve, though single readings can be large or run the other way. Potencies of inconclusive entries are doubtful fits and often do not repeat.
Test: qHTS of GLP-1 Receptor Inverse Agonists: Cytotox Screen
Conditions: HEK293 cAMP-luciferase reporter cells, luminescence, 24 h; series mostly up to 38.3 µM
Method in brief: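 MLSMR compounds, 24 hr on cells at 37 deg C/5% CO2; luminescence after luciferase reagent (12 min RT). Inhibition counted as the undesired cytotoxic outcome.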
Potency is read from the fitted curve at half-maximal effect.

SMILES | Potency
S=C(NCc1ccccc1)Nc1ccc2ccccc2c1 | inconclusive: 25.1 µM [inhibitor, partial curve, poor fit]
S=C(CSc1ccccc1)Nc1cccc2ccccc12 | inconclusive: 3.55 µM [inhibitor, full curve, poor fit]
C=CCn1c(SCC(=O)c2ccc(Cl)cc2)nnc1-c1ccc2c(c1)OCO2 | inactive
Cn1c(CCC(=O)OCC(=O)Nc2ccc(Oc3ccccc3)cc2)nc(=O)c2ccccc21 | inactive
COc1ccc(NC(=O)C(Cl)=C(Cl)Cl)cn1 | inactive
O=C(NCC(c1cccs1)N1CCOCC1)c1ccc(Cl)cc1 (stereo not drawn) | inconclusive: 10 µM [inhibitor, single point]
COCCNc1nc(-n2nc(C)cc2C)nc2sc3c(c12)CCCC3 | inconclusive: 1.12 µM [inhibitor, full curve, poor fit]
N#Cc1c(-c2ccc(Cl)cc2)n(O)c2ccccc12 | inconclusive: 3.55 µM [inhibitor, full curve, poor fit]
Cc1cc(C)cc(-n2ncc3c2CCCC3NC(=O)c2csnn2)c1 (stereo not drawn) | inactive
CN(Cc1ccccc1)S(=O)(=O)c1ccc(NC(=S)NC(=O)C(C)(C)C)cc1 | inactive
CCC1(c2ccccc2)NC(=O)N(CC(=O)NCC2COc3ccccc3O2)C1=O (stereo not drawn) | inactive
CS/C(N)=N/N=C/c1cc(Br)cc(Br)c1O | inactive
COc1ccc2cc(CN(CC3CCCO3)C(=S)Nc3ccccc3)c(=O)[nH]c2c1 (stereo not drawn) | inconclusive: 28.2 µM [inhibitor, single point]
COc1ccccc1N(CC(=O)N/N=C(\C)c1ccccc1O)S(=O)(=O)c1ccc(C)cc1 | inconclusive: 10 µM [inhibitor, partial curve, poor fit]
CCSc1nnc(NC(=O)NC(CC)(C(F)(F)F)C(F)(F)F)s1 | inconclusive: 10 µM [inhibitor, partial curve, poor fit]
Cc1ccc(S(=O)(=O)N2CCOCC2)cc1C(=O)NC(=S)N1CC(C)CC(C)C1 (stereo not drawn) | inconclusive: 31.6 µM [inhibitor, single point]
COc1ccc2[nH]c3c(NCCC4=CCCCC4)ncnc3c2c1 | inconclusive: 14.1 µM [inhibitor, partial curve, poor fit]
C/C(=N\Nc1nc2ccccc2[nH]1)c1cc2ccccc2o1 | inconclusive: 22.4 µM [inhibitor, single point]
Cc1cc(OCC(O)CN2CCc3ccccc3C2)cc(C(C)C)c1 (stereo not drawn) | inconclusive: 22.4 µM [inhibitor, single point]
C=C1C(=O)[C@]23C[C@H]1CCC2[C@@]1(C)C(C[C@@H]3O)[C@](C)(C(=O)OC)CC[C@@H]1O (stereo partly drawn) | inconclusive: 28.2 µM [inhibitor, single point]
Oc1ccc(NC(=S)N=Nc2c(O)[nH]c3ccccc23)cc1 | inconclusive: 25.1 µM [inhibitor, single point]
Cc1cccc(N2CCc3c2nc2ccc(Br)cc2c3N)c1 | inconclusive: 0.501 µM [inhibitor, full curve, poor fit]
CCCCOc1ccc(CSC(=N)N)cc1[N+](=O)[O-] | inconclusive: 28.2 µM [inhibitor, single point]

SMILES | Potency
CCCc1ccc(C(C)NC(=S)NCc2ccc(F)cc2)cc1 (stereo not drawn) | inconclusive: 4.47 µM [inhibitor, full curve, poor fit]
Cc1ccc(S(=O)(=O)N(C)c2ccc(N)cc2)cc1 | inconclusive: 14.1 µM [inhibitor, single point]
COc1ccc(NC(=S)NC(=NS(=O)(=O)c2ccc(Cl)cc2)c2ccccc2)cc1 | inconclusive: 28.2 µM [inhibitor, single point]
Cc1ccc(NNC(=O)CCc2ccccc2)c(C)c1 | inconclusive: 5.62 µM [inhibitor, full curve]
CC1=NN(C(=O)c2ccccc2-n2cccc2)C(O)(C(F)(F)F)C1 (stereo not drawn) | inconclusive: 14.1 µM [inhibitor, partial curve, poor fit]
NC(=S)N/N=C\c1ccccc1OCc1ccccc1 | inconclusive: 6.31 µM [inhibitor, partial curve, poor fit]
NC(=S)N/N=C/c1ccc(-n2nncc2-c2ccc(Cl)cc2)cc1 | inconclusive: 11.2 µM [inhibitor, single point]
O=C(O)c1ccc(N/N=C/c2cc3ccccc3nc2Cl)cc1 | inactive
CC(C)CN1C(=S)SC(C)(C)C1n1oc(=O)n(-c2ccc(Cl)cc2)c1=O (stereo not drawn) | inconclusive: 20 µM [inhibitor, partial curve, poor fit]
CCN1CCN(C(=O)C(C)Sc2nc3nc(C)cc(C)n3n2)CC1 (stereo not drawn) | inconclusive: 22.4 µM [inhibitor, single point]
Cc1ccccc1Cc1c(C)nc2nc(SCC(=O)NCc3ccco3)nn2c1C | inactive
CC(O)CNc1nc2c(c(=O)n(Cc3ccc(Cl)cc3)c(=O)n2C)n1C (stereo not drawn) | inactive
CC(/C=N/NC(=O)Cc1cccs1)=C\c1ccccc1 | inactive
CC(C)COc1ccc(CSCCNC(=S)Nc2ccccc2)cc1 | active: 4.47 µM
CCCc1ccc(-c2cc(NC(=O)CSc3nnc(N)s3)n(-c3ccccc3)n2)cc1 | inconclusive: 31.6 µM [inhibitor, single point]
COc1cccc(C(=O)N/N=C/c2ccc(Oc3ccc([N+](=O)[O-])cn3)c(OC)c2)c1 | inconclusive: 10 µM [inhibitor, single point]
COc1cc(C(=O)NCCNC(=O)c2cnccn2)cc(OC)c1OC | inconclusive: 28.2 µM [inhibitor, single point]
O=C(COc1ccccc1-c1ccccc1)N/N=C/c1ccccn1 | inconclusive: 8.91 µM [inhibitor, single point]
O=C(NNc1ccccc1)C(=O)NNS(=O)(=O)c1ccc(CCCl)cc1 | inconclusive: 2.24 µM [inhibitor, full curve]
Cc1ccc(S(=O)(=O)Nc2cc(Cl)c(O)c3ncccc23)cc1 | inconclusive: 20 µM [inhibitor, single point]
CCOC(=O)c1c(C)[nH]c(C)c1S(=O)(=O)NCC1CCN(Cc2ccccc2F)CC1 | inactive
Cc1c(CCOC(=O)C23CC4(C)CC(C)(CC(C)(C4)C2)C3)sc[n+]1CC(=O)c1ccccc1 | inconclusive: 20 µM [inhibitor, single point]
CC(C)(c1ccccc1)c1ccc(OCCCN2CCNCC2)cc1 | inconclusive: 10 µM [inhibitor, single point]

SMILES | Potency
CC(=O)Nc1ccc(S(=O)(=O)N2CCCN(c3nc(C)cc(C)c3C#N)CC2)cc1 | inconclusive: 28.2 µM [inhibitor, single point]
CC(CCCN1CCCC1)Nc1ccnc2cc(Cl)ccc12 (stereo not drawn) | inconclusive: 11.2 µM [inhibitor, partial curve]
Cn1c(/C=N/n2cnnc2)nc2ccccc21 | inactive
OC(c1ccccc1)(c1nc(/C=C/c2ccc(C(F)(F)F)cc2)cs1)C(F)(F)F (stereo not drawn) | inconclusive: 20 µM [inhibitor, single point]
O=C(C1CC1)N1CCN(c2ccc([N+](=O)[O-])cc2-n2cccc2)CC1 | inconclusive: 11.2 µM [inhibitor, partial curve, poor fit]
CCCC(=O)NC(=S)Nc1cccc(Cl)c1N1CCCC1 | inconclusive: 7.94 µM [inhibitor, partial curve, poor fit]
O=C(C=C1SCCS1)/C=C/c1ccco1 | inconclusive: 28.2 µM [inhibitor, single point]
CCOCCCNC(=S)NNC(=O)CCn1nc(C)c(Br)c1C | inconclusive: 3.98 µM [inhibitor, full curve]
CCNC(=O)COC(=O)c1cc(-c2ccc(OC)cc2)nc2ccccc12 | inactive
CC(C)(C)N(CC#CCC(O)(c1ccccc1)c1ccccc1)CCO | inconclusive: 31.6 µM [inhibitor, partial curve, poor fit]
N#C/C(=C(/O)CSc1ccccn1)c1nc2ccccc2s1 | inactive
S=C(NCC1COc2ccccc2O1)Nc1ccc(Br)cc1 (stereo not drawn) | inconclusive: 22.4 µM [inhibitor, single point]
CCN1C(=O)/C(=C/C=C2\N(CC)c3cc(S(=O)(=O)N(C)C)ccc3N2c2ccccc2)SC1=S | inconclusive: 1.78 µM [inhibitor, full curve, poor fit]
Cc1cccc(N(C)C(=O)CSc2nc3ncccc3o2)c1 | inactive
Cn1cc(/C(Cc2ccccc2)=N\O)c2ccccc21 | inconclusive: 20 µM [inhibitor, single point]
CCC1CCCCN1CCCNC(=O)C1CCN(Cc2nc(-c3ccc(Cl)cc3)oc2C)CC1 (stereo not drawn) | active: 5.01 µM
O=C(OCC(O)C(O)C(O)C(SCc1ccccc1)SCc1ccccc1)c1ccccc1 (stereo not drawn) | inconclusive: 31.6 µM [inhibitor, single point]
O=C(NS(=O)(=O)Oc1ccc(F)c(Cl)c1)OC[C@@H]1CCCN2CCCCC12 (stereo partly drawn) | inactive
CC(OC(=O)c1cc(-c2cccnc2)nc2ccccc12)C(=O)Nc1ccc2ccccc2c1 (stereo not drawn) | inconclusive: 28.2 µM [inhibitor, single point]
O=C(N/N=C/c1ccc2ccccc2c1)c1ccc(COc2ccc3c(c2)CCC3)o1 | inconclusive: 22.4 µM [inhibitor, single point]
Cc1ccc(N=Nc2c(N)nn(-c3ccccc3)c2N)cc1 | inconclusive: 11.2 µM [inhibitor, partial curve, poor fit]
O=C(CCS(=O)(=O)c1ccc(Cl)cc1)Nc1nccs1 | inconclusive: 28.2 µM [inhibitor, single point]
